# According to PubChem BioAssay AID1347073 (National Center for Advancing Translational Sciences (NCATS), 2019):
# The whole screen tested about 45,000 compounds, of which about 200 (0.44%) were called active. Inconclusive results, whose numbers are uncertain, are shown with a selection of clear calls. The call rests on the fitted dose curve; in most records, active means well fitted activation curve with a large enough effect; inconclusive means small, poorly fitted or top-dose-only effect; inactive means no such curve, though single readings can be large or run the other way. Potencies of inconclusive entries are doubtful fits and often do not repeat.
# Test: qHTS of TDP-43 Inhibitors: NCGC Sytravon Library Screen; further: nearly all actives have a fitted effect of over 55% in size; on growth rescue (activation): 0% is about no effect
# Conditions: yeast TDP-43 toxicity rescue, BacTiter-Glo growth, 24 h; growth rescue (activation): at 46.1 µM (top of the series)
# How it was run: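 TDP-43-expressing yeast, pregrown in raffinose, seeded at OD600 0.02 in galactose medium with compound for 24 hr at 30 deg C. Growth read by BacTiter-Glo luminescence, so rescue of toxicity appears as activation.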
# Potency means the concentration at half of the fitted maximal effect; tags describe the fitted curve by direction and shape.
SMILES,growth rescue (activation),Potency
Cc1ccc2nc(COC(=O)c3ccc(Cl)nc3)cc(=O)n2c1,inactive: 3.66%,–
CCn1cc(C(=O)N2CCN(c3cccc(C)c3C)CC2)c(=O)c2ccc(C)nc21,–,"inconclusive: 3.16 µM [activator, partial curve, poor fit]"
COc1ccc(C(C)=O)cc1COc1ccc(F)cc1,–,"inconclusive: 14.1 µM [activator, partial curve, poor fit]"
O=C(c1ccc(F)cc1)N1CCN2C(=O)c3ccccc3C12c1ccc(Cl)cc1 (stereo not drawn),–,"inconclusive: 25.1 µM [activator, single point]"
Cc1ccccc1-c1cc2nc(Nc3ccc(F)cc3)n(C)c(=O)c2s1,–,"inconclusive: 22.4 µM [activator, partial curve, poor fit]"
Cc1ccc(-c2csc3nc[nH]c(=S)c23)cc1,–,active: 14.1 µM
COc1cccc(N2CCN(C(=O)c3ccc4ccccc4c3)CC2)c1,–,"inconclusive: 12.6 µM [activator, single point]"
CCOC(=O)C1CCCN(C(=S)Nc2cccc(Cl)c2)C1 (stereo not drawn),–,"inconclusive: 17.8 µM [activator, partial curve, poor fit]"
Cc1cccc(N/N=C(\C(N)=O)C2=NC(C)(C)Cc3ccccc32)c1,–,"inconclusive: 15.8 µM [activator, single point]"
N#CCOC(=O)C1c2ccccc2Oc2ccccc21,–,"inconclusive: 12.6 µM [activator, single point]"
O=C(CCl)N=c1sccn1Cc1ccccc1Cl,–,"inconclusive: 11.2 µM [activator, partial curve, poor fit]"
CCN(CC)c1ccc(NC(=O)c2ccc(=O)[nH]c2)cc1S(=O)(=O)Nc1ccccc1OC,inactive: 12.6%,–
COC(=O)c1ccccc1NC(=O)Cn1cnc2c1c(=O)n(C)c(=O)n2C,–,"inconclusive: 22.4 µM [activator, partial curve]"
CCOc1ccc(S(=O)(=O)N2CCC(C(=O)NC3CC3)CC2)cc1C,inactive: 5.72%,–
O=C(N/N=C1/C(=O)c2cccc3cccc1c23)c1ccc(Cl)cc1,–,"inconclusive: 25.1 µM [activator, partial curve, poor fit]"
CCN1CCN(c2nnc(-c3ccc(F)cc3)c3ccccc23)CC1,inconclusive: -55.8% [activator],–
COc1ccc(Cl)cc1NC(=O)c1cccc(N2C(=O)C3CC=CCC3C2=O)c1 (stereo not drawn),–,"inconclusive: 11.2 µM [activator, partial curve]"
COc1ccc(CN(C)C(=O)C23CC4CC(CC(C4)C2)C3)c(OC)c1,inactive: 8.09%,–
Cc1cccc(NC(=O)c2nc(S(=O)(=O)Cc3ccccc3)ncc2Cl)c1,–,active: 12.6 µM
O=C(COC(=O)CCc1ccccc1)NCc1ccc2c(c1)OCO2,inactive: 25%,–
C=C(C)COc1ccc(-c2nc(N)ncc2-c2ccccc2OC)c(O)c1,–,"inconclusive: 35.5 µM [activator, single point]"
O=C(CSc1nc2ccccc2c(=O)n1CC1CCCO1)NCc1ccccc1 (stereo not drawn),inactive: 0.857%,–

SMILES,growth rescue (activation),Potency
O=C(CSc1ncccn1)NC1CCCc2ccccc21 (stereo not drawn),–,"inconclusive: 35.5 µM [activator, single point]"
O=C(CCCSc1ccc(Cl)cc1)Nc1ccccc1O,–,active: 11.2 µM
Cc1ccc(S(=O)(=O)N2CCC[C@H]2C(=O)Nc2ccccc2C)cc1,–,"inconclusive: 35.5 µM [activator, single point]"
CCCSc1ncc(Cl)c(C(=O)N2CCN(c3ccc(OC)cc3)CC2)n1,inactive: 32.9%,–
COc1ccc(C(=O)COC(=O)CCc2ccccc2)cc1,–,"inconclusive: 31.6 µM [activator, single point]"
CCOc1cc(/C=C/c2nc3ccccc3s2)ccc1OCC(=O)N1CCOCC1,–,"inconclusive: 35.5 µM [activator, single point]"
C=CCc1cccc2cc(C(=O)OCC)c(=O)oc12,–,"inconclusive: 10 µM [activator, partial curve]"
N/C(=N\OC(=O)/C=C/c1ccccc1)c1ccccn1,–,"inconclusive: 20 µM [activator, partial curve, poor fit]"
CNC(=O)N(O)C1N(NC(=O)Nc2ccccc2)C(=S)SC1(C)C (stereo not drawn),–,"inconclusive: 35.5 µM [activator, single point]"
CCOC(=O)C1CCCN(C(=O)c2cc(-c3ccccc3)cs2)CC1 (stereo not drawn),–,"inconclusive: 12.6 µM [activator, partial curve, poor fit]"
COc1ccc(N2CCN(C(=O)c3ccccc3NS(=O)(=O)c3ccc(C)cc3)CC2)cc1,–,"inconclusive: 20 µM [activator, partial curve, poor fit]"
O=C(c1cccc(S(=O)(=O)N2CCCCC2)c1)N1CCc2ccccc21,–,"inconclusive: 20 µM [activator, single point]"
Cc1ccc(-c2cc(C(=O)NC3=NCCS3)c3ccccc3n2)cc1C,–,"inconclusive: 14.1 µM [activator, single point]"
CC1(C(=O)NC2CCCCC2)Cc2ccccc2C(=O)N1Cc1ccc(Cl)cc1 (stereo not drawn),inactive: 6.82%,–
COc1ccc(Nc2nc(N)c([N+](=O)[O-])c(NC3CCCCC3)n2)cc1,–,"inconclusive: 14.1 µM [activator, partial curve, poor fit]"
Cc1ccc(CN2C(=O)C(C)Sc3ccc(C#N)cc32)cc1 (stereo not drawn),–,"inconclusive: 15.8 µM [activator, single point]"
Cc1cccc(CNC(=O)Cc2csc3ccccc23)c1,–,"inconclusive: 22.4 µM [activator, partial curve, poor fit]"
COc1cc(NC(=O)Cn2ccsc2=N)cc(OC)c1,–,"inconclusive: 12.6 µM [activator, single point]"
O=C(CSc1ccc2ccccc2n1)NCCC1=CCCCC1,–,"inconclusive: 15.8 µM [activator, single point]"
Cc1ccc(C)c(NC(=O)CCCN2C(=O)COc3ccc(C)cc32)c1,–,"inconclusive: 17.8 µM [activator, single point]"
N#Cc1sc2nc(C3CC3)cc(-c3ccccc3)c2c1N,–,"inconclusive: 1.26 µM [activator, full curve, poor fit]"
